# Article PMC11832924
# Chains of the proteins cited; added tags and fusions are not shown.
# UniProt P61081: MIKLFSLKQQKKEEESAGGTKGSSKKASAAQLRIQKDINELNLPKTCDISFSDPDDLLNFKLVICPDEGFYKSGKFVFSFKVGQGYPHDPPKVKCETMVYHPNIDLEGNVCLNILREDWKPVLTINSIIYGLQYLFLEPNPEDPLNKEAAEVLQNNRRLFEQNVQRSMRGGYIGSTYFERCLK
# Results are given in words; binding and its absence hold for the method and conditions named. For part of these data: In cells and extracts the contact can be indirect. Some results given as binding are weak or reduced against the parent protein; the word gives no strength. For part of these data: Sequences can lack the tags named with a protein.
# T1: FLAG-UBE2F (UniProt Q969M7)
# T1 sequence: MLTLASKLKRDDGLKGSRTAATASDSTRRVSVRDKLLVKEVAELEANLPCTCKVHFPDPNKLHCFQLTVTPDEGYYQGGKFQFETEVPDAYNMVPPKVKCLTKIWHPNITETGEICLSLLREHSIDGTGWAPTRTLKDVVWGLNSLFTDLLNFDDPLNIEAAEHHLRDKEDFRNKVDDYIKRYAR
# B1: UBE2F (endogenous) (enzyme, UniProt Q969M7 1-185)
# chain: T1 sequence
# Key:
# [1] = molecular target: His-SUMO-SAG (UniProt Q9UBF6); experiment: pull-down; purified GST-tagged and His-SUMO-tagged proteins mixed in binding buffer (50 mM Tris-HCl pH 7.5, 1% Triton X-100, 150 mM NaCl, 1 mM DTT, 0.5 mM EDTA); pulled down with Ni-NTA agarose or GST beads for 4 h; no CUL-5 present; both purified
# [2] = molecular target: SAG (endogenous) (human (endogenous in liver cancer cell lines)) (UniProt Q9UBF6); experiment: co-IP; endogenous proteins of liver cancer cells, unstressed; IP with anti-SAG Ab or anti-RHEB Ab, normal IgG as control; co-IP lysis buffer (50 mM Tris-HCl, 0.5% NP-40, 120 mM NaCl, 1 mM EDTA, pH 8.0)
# [3] = molecular target: T1, FLAG-UBE2F; experiment: co-IP; PLC/PRF/5 and SK-HEP-1 cells transfected with FLAG-tagged plasmids for 48 h; IP with FLAG beads, immunoblot for endogenous RHEB
# [4] = molecular target: FLAG-UBE2M (UniProt P61081); experiment: as above
# [5] = molecular target: FLAG-SAG (UniProt Q9UBF6); experiment: as above
# [6] = molecular target: RHEB (endogenous) (human (endogenous in PLC/PRF/5 and SK-HEP-1)) (UniProt Q15382); experiment: co-IP; endogenous proteins of liver cancer cells, unstressed; IP with anti-SAG Ab or anti-RHEB Ab, normal IgG as control; co-IP lysis buffer (50 mM Tris-HCl, 0.5% NP-40, 120 mM NaCl, 1 mM EDTA, pH 8.0)
molecule,measurement,setting,value
GST-RHEB (from UniProt Q15382 1-184),binding,[1],binds
RHEB (endogenous) (from UniProt Q15382 1-184),binding,[2],binds
same,binding,[3],no binding
same,binding,[4],no binding
same,binding,[5],binds
B1,binding,[6],no binding
